Results reported in the supplement of paper PMC7826260.
The other results are listed elsewhere or left out. Each Rep nickase domain was tested in vitro on the same pool of single strands (1 h at 37 °C, 3 µM enzyme); the outer parts of the 90-letter strands are left off. A value is the log2 ratio of uncut reads to the pool without enzyme; uncut sequences lie near 0, cut ones below; no hit call is given. Counts are relative to all reads; where an enzyme cuts many sequences, the uncut ones exceed 0.

Legend:
Experiment in all cases: uncleaved DNA left, log2 of reads against the no-enzyme library (log2 ratio); higher = less cleavage (more negative = more Rep cleavage of the k-mer); sequences stand for … in CTCGTCCG…ACCGGAGA
[1] = tested on: T1, Rep nickase domain of Muscovy duck circovirus
T1 sequence (protein, residues 1-111, tag omitted): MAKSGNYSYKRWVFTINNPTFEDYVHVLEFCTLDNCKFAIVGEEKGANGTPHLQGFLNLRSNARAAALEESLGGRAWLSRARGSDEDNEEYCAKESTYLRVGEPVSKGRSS
Procedure: (§1)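 A pool of 90-nt single-stranded DNAs with seven random bases just before the constant AC of the nick site (name = the seven bases) was cut by 3 µM recombinant His6-SUMO-tagged Rep nickase domain (300 nM DNA, 50 mM HEPES pH 8.0, 50 mM NaCl, 1 mM MnCl2, 1 h, 37 °C, three replicates). Uncut DNA was amplified and sequenced.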

[2] = tested on: T2, Rep nickase domain of banana bunchy top virus
T2 sequence (protein, residues 1-94, tag omitted): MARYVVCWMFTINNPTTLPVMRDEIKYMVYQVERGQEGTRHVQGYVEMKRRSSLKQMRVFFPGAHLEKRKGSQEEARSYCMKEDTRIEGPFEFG
Procedure: as §1

[3] = tested on: T3, Rep nickase domain of cabbage leaf curl virus
T3 sequence (protein, residues 1-116, tag omitted): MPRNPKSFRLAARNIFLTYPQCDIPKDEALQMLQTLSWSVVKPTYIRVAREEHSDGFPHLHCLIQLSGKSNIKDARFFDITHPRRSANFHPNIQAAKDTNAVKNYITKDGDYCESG
Procedure: as §1

[4] = tested on: T4, Rep nickase domain of chickpea chlorotic dwarf virus
T4 sequence (protein, residues 1-124, tag omitted): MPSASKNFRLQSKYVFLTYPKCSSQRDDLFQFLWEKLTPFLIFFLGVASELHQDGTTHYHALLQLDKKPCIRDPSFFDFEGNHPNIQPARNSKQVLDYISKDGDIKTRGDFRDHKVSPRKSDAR
Procedure: as §1

[5] = tested on: T5, Rep nickase domain of faba bean necrotic yellows virus
T5 sequence (protein, residues 1-98, tag omitted): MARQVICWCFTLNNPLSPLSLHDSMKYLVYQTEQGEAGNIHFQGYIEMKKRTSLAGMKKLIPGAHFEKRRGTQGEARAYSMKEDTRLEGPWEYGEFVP
Procedure: as §1

[6] = tested on: T6, Rep nickase domain of maize striate mosaic virus
T6 sequence (protein, residues 1-117, tag omitted): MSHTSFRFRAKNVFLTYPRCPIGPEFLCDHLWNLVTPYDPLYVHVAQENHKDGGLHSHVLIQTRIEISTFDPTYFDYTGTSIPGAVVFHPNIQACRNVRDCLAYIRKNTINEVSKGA
Procedure: as §1

[7] = tested on: T7, Rep nickase domain of porcine circovirus 2
T7 sequence (protein, residues 2-116, tag omitted): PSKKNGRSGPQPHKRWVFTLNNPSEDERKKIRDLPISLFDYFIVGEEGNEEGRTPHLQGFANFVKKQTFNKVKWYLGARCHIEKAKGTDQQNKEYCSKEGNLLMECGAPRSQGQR
Procedure: as §1

[8] = tested on: T8, Rep nickase domain of tomato golden mosaic virus
T8 sequence (protein, residues 1-124, tag omitted): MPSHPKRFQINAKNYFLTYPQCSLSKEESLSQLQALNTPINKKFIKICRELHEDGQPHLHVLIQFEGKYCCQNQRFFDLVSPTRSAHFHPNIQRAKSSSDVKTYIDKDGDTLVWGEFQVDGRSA
Procedure: as §1

[9] = tested on: T9, Rep nickase domain of tomato yellow leaf curl virus
T9 sequence (protein, residues 1-136, tag omitted): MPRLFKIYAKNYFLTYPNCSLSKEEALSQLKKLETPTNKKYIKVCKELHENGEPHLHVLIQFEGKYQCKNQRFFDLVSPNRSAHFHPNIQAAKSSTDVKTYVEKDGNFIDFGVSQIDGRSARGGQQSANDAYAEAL
Procedure: as §1

[10] = tested on: T10, Rep nickase domain of wheat dwarf virus
T10 sequence (protein, residues 1-137, tag omitted): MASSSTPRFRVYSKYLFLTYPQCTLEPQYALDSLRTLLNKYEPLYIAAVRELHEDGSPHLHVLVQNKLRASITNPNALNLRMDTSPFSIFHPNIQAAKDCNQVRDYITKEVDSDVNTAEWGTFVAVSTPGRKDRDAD
Procedure: as §1

Row | Sequence | uncleaved DNA left (log2) [1] | uncleaved DNA left (log2) [2] | uncleaved DNA left (log2) [3] | uncleaved DNA left (log2) [4] | uncleaved DNA left (log2) [5] | uncleaved DNA left (log2) [6] | uncleaved DNA left (log2) [7] | uncleaved DNA left (log2) [8] | uncleaved DNA left (log2) [9] | uncleaved DNA left (log2) [10]
1 | GGGGGCG | 0.00279 | 0.0207 | -0.18 | 0.816 | 0.115 | 0.533 | 0.108 | 0.0833 | -0.0747 | -0.0714
2 | TCGTGTC | 0.142 | 0.0301 | 0.143 | -0.119 | 0.0548 | -0.635 | -0.0328 | -0.0283 | 0.118 | -0.0205
3 | TGGGGCA | 0.0572 | 0.00996 | 0.845 | 1.85 | 0.0374 | 2.21 | 0.168 | -0.0289 | -0.0294 | 0.0837
4 | CGTCAGG | -0.0553 | 0.0653 | 0.168 | 0.686 | 0.0379 | 0.467 | 0.107 | 0.0177 | 0.0187 | 0.131
5 | TTACACT | 0.0216 | 0.0104 | -0.911 | -2.94 | 0.00432 | -0.682 | -0.42 | -0.183 | 0.0238 | -0.307
6 | GTCAAAA | 0.176 | 0.0948 | 0.331 | 0.959 | -0.0029 | 1.72 | 0.0913 | 0.184 | 0.0271 | 0.164
7 | TCACCGC | -0.0622 | -0.134 | -0.354 | -0.819 | -0.101 | -0.798 | -0.151 | -0.0715 | -0.181 | -0.0753
8 | AACTGTT | -3.66 | -3.32 | -1.76 | -2.79 | -0.503 | 0.294 | -4.31 | -0.624 | -0.316 | -0.46
9 | TCAATTA | 0.0871 | -0.0706 | -0.0731 | -1.33 | 0.00211 | -0.591 | -0.164 | -0.0265 | -0.0312 | -0.0918
10 | TAGAGGG | 0.117 | 0.0196 | 0.0793 | 0.113 | 0.108 | -0.426 | 0.176 | 0.121 | 0.145 | 0.0406
11 | ACTTCAT | 0.0212 | 0.0276 | -0.0762 | -1.03 | -0.0428 | -0.631 | -0.201 | 0.0857 | 0.000799 | 0.0975
12 | TAATGAG | 0.18 | 0.0112 | -1.2 | -1.3 | 0.17 | -1.02 | 0.24 | 0.0434 | 0.16 | -0.0229
13 | GTTTGCG | 0.0617 | 0.0154 | -0.0589 | 1.13 | 0.0694 | 0.853 | 0.216 | 0.00028 | -0.193 | -0.0443
14 | CGCTTGA | 0.117 | -0.0936 | -0.0405 | 0.129 | 0.0973 | -0.382 | 0.0386 | -0.0123 | 0.219 | 0.161
15 | ACCGTCT | -0.0911 | -0.151 | -0.456 | -1.92 | -0.0411 | -1.01 | -0.0734 | -0.0866 | -0.202 | -0.289
16 | ACTGGTG | 0.0104 | 0.0362 | -0.733 | -0.182 | 0.0331 | -0.869 | 0.133 | 0.0806 | 0.0228 | -0.0904
17 | ACGAATA | -0.096 | -0.0513 | -0.281 | -1.12 | -0.116 | -0.521 | -0.037 | -0.051 | -0.153 | -0.24
18 | CGTCGAA | -0.0735 | -0.0603 | -0.175 | -0.327 | -0.117 | -0.754 | 0.0522 | -0.123 | -0.212 | -0.193
19 | ACTCAGA | 0.0664 | 0.00709 | -0.269 | -0.367 | -0.0208 | -1.06 | 0.0714 | -0.0174 | -0.149 | -0.163
20 | CTCGAGT | -0.0697 | -0.129 | -0.127 | -0.353 | -0.247 | -0.757 | -0.337 | -0.0378 | -0.0099 | -0.181
21 | GAACTCC | 0.00141 | 0.0214 | 0.14 | 0.199 | 0.00693 | 1.03 | 0.0178 | 0.0312 | 0.0399 | 0.0513
22 | GAAGAGT | 0.0915 | 0.0736 | 0.245 | 0.0841 | 0.0958 | 0.35 | 0.0724 | 0.0665 | 0.0669 | 0.109
23 | TGCAGTT | -0.0976 | -0.0718 | -0.238 | -1.77 | -0.0833 | -0.802 | -0.253 | -0.042 | -0.0165 | -0.19
24 | GGATTTT | -0.547 | 0.00909 | 0.488 | 0.99 | -0.0429 | 1.89 | -1.54 | -0.0191 | 0.0142 | 0.0695
25 | GTGCGCC | 0.0801 | 0.0368 | 0.19 | 0.477 | -0.0861 | 0.465 | 0.0575 | 0.00903 | 0.0571 | 0.0509
26 | TAGGCTT | 0.0637 | -0.379 | -1.15 | -2.01 | -0.0379 | 0.902 | -2.97 | -0.0899 | 0.0696 | -0.0531
27 | GGACAGG | 0.0602 | 0.151 | 0.942 | 1.95 | 0.208 | 2.27 | 0.277 | 0.224 | 0.175 | 0.27
28 | CCTGGTC | 0.112 | -0.00313 | 0.378 | 0.151 | 0.106 | -0.189 | 0.112 | 0.0561 | 0.14 | -0.0186
29 | ATGCCTG | -0.0501 | -0.181 | -0.0752 | 0.471 | -0.0188 | 1.03 | -0.0307 | -0.0835 | -0.205 | -0.0819
30 | CAACTCG | 0.0485 | 0.0622 | -0.79 | -0.853 | 0.142 | -0.931 | 0.136 | 0.116 | 0.0789 | 0.0231
